Drawing on the supplement of paper PMC4604168 (melanoma cell lines), this text covers cell count for 23 compounds.

Some of the results follow. Many values rest on one well or one pass, so single values are uncertain.

Test systems include WM115; WM1716; WM1745; WM3526; WM3619; WM451Lu.
Assay in all cases: cell count relative to DMSO control; melanoma cells; higher = more viable cells
Conditions in all cases: library dose: low library concentration; 72 h
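Note: cell number obtained by counting DAPI-stained nuclei in high-throughput microscope images with image analysis software, screen run in 1,536-well plates.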

Turning to `N.N.[Cl][Pt][Cl]` [cisplatin] + COCC[n+]1c2c(n(Cc3cnccn3)c1C)C(=O)c1ccccc1C2=O [YM155] (first compound 1.6 µM, partner dose 0.0004 µM), the cell count with WM115 came out at 110%; in the assay with WM1716, 100%; with WM1745, 96.1%; in the assay with WM3526, 111%; in the assay on WM3619, 132%; in the assay on WM451Lu, 71.7%.

With `N.N.[Cl][Pt][Cl]` [cisplatin] + CNC(=O)c1cc(Oc2ccc(NC(=O)Nc3ccc(Cl)c(C(F)(F)F)c3)cc2)ccn1 [sorafenib] (first compound 1.6 µM, partner dose 0.4 µM), the cell count in the assay on WM115 was 92.9%; in the assay on WM1716, 91%; with WM1745, 97.9%; in the assay on WM3526, 96.7%; with WM3619 it was 85.9%; in the assay on WM451Lu it was 95.3%.

Regarding `C[C@]12O[C@H](C[C@]1(O)CO)n1c3ccccc3c3c4c(c5c6ccccc6n2c5c31)CNC4=O` [Lestaurtinib] + C[C@@H](Oc1cc(-c2cnn(C3CCNCC3)c2)cnc1N)c1c(Cl)ccc(F)c1Cl [Crizotinib] (first compound 0.004 µM, partner dose 0.2 µM), the cell count worked out at 83.8% with WM115; 99.8% in the assay with WM1716; 102% in the assay with WM1745; 93.8% in the assay with WM3526; 116% in the assay on WM3619; 78.2% in the assay on WM451Lu.

As for `C[C@]12O[C@H](C[C@]1(O)CO)n1c3ccccc3c3c4c(c5c6ccccc6n2c5c31)CNC4=O` [Lestaurtinib] + COCC[n+]1c2c(n(Cc3cnccn3)c1C)C(=O)c1ccccc1C2=O [YM155] (first compound 0.004 µM, partner dose 0.0004 µM), the cell count worked out at 95.1% in the assay with WM115; 104% in the assay on WM1716; 98.2% in the assay on WM1745; 97.3% with WM3526; 103% in the assay with WM3619; 78.3% in the assay on WM451Lu.

Take `C[C@]12O[C@H](C[C@]1(O)CO)n1c3ccccc3c3c4c(c5c6ccccc6n2c5c31)CNC4=O` [Lestaurtinib] + Cc1nc(Nc2ncc(C(=O)Nc3c(C)cccc3Cl)s2)cc(N2CCN(CCO)CC2)n1 [dasatanib] (first compound 0.004 µM, partner dose 0.004 µM): the cell count came to 89.1% in the assay on WM115; 88.3% in the assay with WM1716; 75.4% with WM1745; 89% in the assay with WM3526; 94.4% with WM3619; 92.9% in the assay with WM451Lu.

`C[As](C)SC[C@H](NC(=O)CC[C@H](N)C(=O)O)C(=O)NCC(=O)O` [Darinaparsin] + Cn1nnc2c(C(N)=O)ncn2c1=O [temozolomide] (first compound 0.4 µM, partner dose 2 µM): the cell count in the assay with WM115 stood at 105%; in the assay with WM1716, 92.7%; in the assay with WM1745, 122%; in the assay with WM3526 it was 92.5%; in the assay with WM3619 it was 93.1%; in the assay on WM451Lu, 89.6%.

With `C[As](C)SC[C@H](NC(=O)CC[C@H](N)C(=O)O)C(=O)NCC(=O)O` [Darinaparsin] + C[C@]1(c2nc3c(C(N)=O)cccc3[nH]2)CCCN1 [Veliparib] (first compound 0.4 µM, partner dose 1.4 µM), the cell count with WM115 was found to be 88.6%; in the assay with WM1716, 106%; with WM1745 it was 99.9%; with WM3526 it was 91.2%; with WM3619, 104%; in the assay with WM451Lu, 93.7%.

Take `Cn1cc(C2=C(c3cn(C4CCN(Cc5ccccn5)CC4)c4ccccc34)C(=O)NC2=O)c2ccccc21` [Enzastaurin] + C/C(O)=C(\C#N)C(=O)Nc1cc(Br)ccc1Br [LFM-A13] (first compound 0.8 µM, partner dose 2 µM): the cell count is 99.2% in the assay on WM115; 100% with WM1716; 77.7% with WM1745; 88.8% in the assay with WM3526; 91.4% in the assay on WM3619; 113% in the assay on WM451Lu.

Consider `Cn1cc(C2=C(c3cn(C4CCN(Cc5ccccn5)CC4)c4ccccc34)C(=O)NC2=O)c2ccccc21` [Enzastaurin] + CCCS(=O)(=O)Nc1ccc(F)c(C(=O)c2c[nH]c3ncc(Cl)cc23)c1F [PLX4720] (first compound 0.8 µM, partner dose 0.08 µM), for which the cell count with WM115 came to 123%; with WM1716 it was 94.9%; with WM1745 it was 107%; in the assay on WM3526, 114%; with WM3619, 83%; in the assay with WM451Lu, 112%.

Take `C[C@]12O[C@H](C[C@]1(O)CO)n1c3ccccc3c3c4c(c5c6ccccc6n2c5c31)CNC4=O` [Lestaurtinib] + CC(C)(C)c1cnc(CSc2cnc(NC(=O)C3CCNCC3)s2)o1 [SNS-032] (first compound 0.004 µM, partner dose 0.01 µM): the cell count is 98.9% with WM115; 101% in the assay with WM1716; 96.8% in the assay with WM1745; 102% in the assay on WM3526; 107% in the assay on WM3619; 134% with WM451Lu.

With `Cn1cc(C2=C(c3cn(C4CCN(Cc5ccccn5)CC4)c4ccccc34)C(=O)NC2=O)c2ccccc21` [Enzastaurin] + C=C(c1ccc(C(=O)O)cc1)c1cc2c(cc1C)C(C)(C)CCC2(C)C [Bexarotene] (first compound 0.8 µM, partner dose 2 µM), the cell count in the assay with WM115 amounted to 110%; in the assay with WM1716 it was 96.8%; in the assay on WM1745, 85.7%; in the assay with WM3526 it was 107%; with WM3619 it was 82%; in the assay with WM451Lu it was 104%.

In the case of `C[C@]12O[C@H](C[C@]1(O)CO)n1c3ccccc3c3c4c(c5c6ccccc6n2c5c31)CNC4=O` [Lestaurtinib] + CCCS(=O)(=O)Nc1ccc(F)c(C(=O)c2c[nH]c3ncc(Cl)cc23)c1F [PLX4720] (first compound 0.004 µM, partner dose 0.08 µM), the cell count came out at 108% in the assay with WM115; 120% in the assay with WM1716; 94.5% in the assay with WM1745; 78.6% with WM3526; 114% with WM3619; 100% in the assay on WM451Lu.

As to `C[C@]12O[C@H](C[C@]1(O)CO)n1c3ccccc3c3c4c(c5c6ccccc6n2c5c31)CNC4=O` [Lestaurtinib] + OCCn1cc(-c2cnc3nnn(Cc4ccc5ncccc5c4)c3n2)cn1 [PF04217903] (first compound 0.004 µM, partner dose 1 µM), the cell count in the assay with WM115 was 101%; with WM1716, 134%; in the assay with WM1745, 87.4%; in the assay with WM3526, 94.6%; in the assay on WM3619, 100%; in the assay with WM451Lu it was 88.9%.

For the compound `C[C@]12O[C@H](C[C@]1(O)CO)n1c3ccccc3c3c4c(c5c6ccccc6n2c5c31)CNC4=O` [Lestaurtinib] + COc1ccc(COc2ccc(Cc3cnc(N)nc3N)cc2OC)cc1 [GW2580] (first compound 0.004 µM, partner dose 1 µM), the cell count in the assay on WM115 amounted to 92.4%; in the assay with WM1716 it was 93%; with WM1745, 90.4%; in the assay on WM3526, 83.2%; in the assay with WM3619 it was 103%; with WM451Lu it was 107%.

Consider `Cn1cc(C2=C(c3cn(C4CCN(Cc5ccccn5)CC4)c4ccccc34)C(=O)NC2=O)c2ccccc21` [Enzastaurin] + CC(C)CCN1c2nc(Nc3cc(F)c(O)c(F)c3)ncc2N(C)C(=O)C1C [BID1870] (first compound 0.8 µM, partner dose 0.2 µM), for which the cell count in the assay with WM115 is 102%; in the assay on WM1716, 108%; with WM1745, 90.1%; in the assay with WM3526, 109%; in the assay on WM3619, 106%; with WM451Lu it was 105%.

Turning to `C[As](C)SC[C@H](NC(=O)CC[C@H](N)C(=O)O)C(=O)NCC(=O)O` [Darinaparsin] + COc1cc2c(Oc3ccc4[nH]c(C)cc4c3F)ncnc2cc1OCCCN1CCCC1 [cediranib] (first compound 0.4 µM, partner dose 0.4 µM), the cell count amounted to 102% in the assay with WM115; 116% in the assay with WM1716; 93.6% with WM1745; 110% in the assay on WM3526; 117% in the assay on WM3619; 97.9% in the assay on WM451Lu.

In the case of `N.N.[Cl][Pt][Cl]` [cisplatin] + C#Cc1cccc(Nc2ncnc3cc(OCCOC)c(OCCOC)cc23)c1 [erlotinib] (first compound 1.6 µM, partner dose 0.8 µM), the cell count was 94.1% in the assay with WM115; 98.3% in the assay with WM1716; 97.9% in the assay with WM1745; 119% with WM3526; 98.5% with WM3619; 90.2% in the assay on WM451Lu.

As to `N.N.[Cl][Pt][Cl]` [cisplatin] + COc1cc2c(Oc3ccc4[nH]c(C)cc4c3F)ncnc2cc1OCCCN1CCCC1 [cediranib] (first compound 1.6 µM, partner dose 0.4 µM), the cell count was 94.5% in the assay on WM115; 94.8% in the assay on WM1716; 115% with WM1745; 92.4% in the assay with WM3526; 114% with WM3619; 120% in the assay with WM451Lu.

In the case of `Cn1cc(C2=C(c3cn(C4CCN(Cc5ccccn5)CC4)c4ccccc34)C(=O)NC2=O)c2ccccc21` [Enzastaurin] + Cc1cc(Nc2cc(N3CCN(C)CC3)nc(/C=C/c3ccccc3)n2)n[nH]1 [ENMD2076] (first compound 0.8 µM, partner dose 0.04 µM), the cell count was determined as 103% in the assay on WM115; 115% in the assay with WM1716; 91.5% in the assay on WM1745; 108% in the assay with WM3526; 115% with WM3619; 109% in the assay on WM451Lu.

Turning to `Cn1cc(C2=C(c3cn(C4CCN(Cc5ccccn5)CC4)c4ccccc34)C(=O)NC2=O)c2ccccc21` [Enzastaurin] + COc1ccc2c(c1)CCC1C2CCC2(C)C(NCCCCCCN3C(=O)C=CC3=O)CCC12 [U73122] (first compound 0.8 µM, partner dose 0.4 µM), the cell count in the assay with WM115 was determined as 95.5%; with WM1716, 89.4%; with WM1745 it was 98.9%; in the assay with WM3526 it was 108%; in the assay with WM3619 it was 107%; in the assay with WM451Lu it was 90.6%.

As for `N.N.[Cl][Pt][Cl]` [cisplatin] + C=C(c1ccc(C(=O)O)cc1)c1cc2c(cc1C)C(C)(C)CCC2(C)C [Bexarotene] (first compound 1.6 µM, partner dose 2 µM), the cell count in the assay on WM115 stood at 102%; in the assay on WM1716, 95.9%; with WM1745, 108%; in the assay on WM3526, 85.6%; in the assay on WM3619 it was 116%; in the assay on WM451Lu it was 89.4%.

As to `C[As](C)SC[C@H](NC(=O)CC[C@H](N)C(=O)O)C(=O)NCC(=O)O` [Darinaparsin] + O=C(O)c1ccc(-c2c[nH]c3ncc(-c4ccccc4)cc23)cc1C1CCCC1 [GSK650394] (first compound 0.4 µM, partner dose 0.16 µM), the cell count in the assay with WM115 is 87.8%; with WM1716, 108%; in the assay on WM1745, 85.6%; in the assay on WM3526 it was 77.9%; with WM3619, 105%; in the assay with WM451Lu, 99%.

Regarding `C[C@]12O[C@H](C[C@]1(O)CO)n1c3ccccc3c3c4c(c5c6ccccc6n2c5c31)CNC4=O` [Lestaurtinib] + Cc1cc(Nc2cc(N3CCN(C)CC3)nc(/C=C/c3ccccc3)n2)n[nH]1 [ENMD2076] (first compound 0.004 µM, partner dose 0.04 µM), the cell count in the assay with WM115 is 101%; in the assay on WM1716, 110%; in the assay on WM1745, 99.7%; with WM3526 it was 83.9%; in the assay on WM3619, 99.8%; in the assay with WM451Lu, 109%.
